The values that follow come from publication PMC4336329 (PLoS ONE, 2015).

About 14,000 (4.5%) of roughly 310,000 compounds showed an effect of 50% or more. Effects have a minus sign here. This is one part of the list.
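Further: peak tail current of the secondary pulse compared with the same well before compound.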

For this test, the target named is human ether-à-go-go-related gene (hERG) potassium channel (human, UniProt Q12809). Description: primary screen, population patch clamp on CHO cells stably expressing hERG.
Sequence of human ether-à-go-go-related gene (hERG) potassium channel (Q12809 whole entry, looked up): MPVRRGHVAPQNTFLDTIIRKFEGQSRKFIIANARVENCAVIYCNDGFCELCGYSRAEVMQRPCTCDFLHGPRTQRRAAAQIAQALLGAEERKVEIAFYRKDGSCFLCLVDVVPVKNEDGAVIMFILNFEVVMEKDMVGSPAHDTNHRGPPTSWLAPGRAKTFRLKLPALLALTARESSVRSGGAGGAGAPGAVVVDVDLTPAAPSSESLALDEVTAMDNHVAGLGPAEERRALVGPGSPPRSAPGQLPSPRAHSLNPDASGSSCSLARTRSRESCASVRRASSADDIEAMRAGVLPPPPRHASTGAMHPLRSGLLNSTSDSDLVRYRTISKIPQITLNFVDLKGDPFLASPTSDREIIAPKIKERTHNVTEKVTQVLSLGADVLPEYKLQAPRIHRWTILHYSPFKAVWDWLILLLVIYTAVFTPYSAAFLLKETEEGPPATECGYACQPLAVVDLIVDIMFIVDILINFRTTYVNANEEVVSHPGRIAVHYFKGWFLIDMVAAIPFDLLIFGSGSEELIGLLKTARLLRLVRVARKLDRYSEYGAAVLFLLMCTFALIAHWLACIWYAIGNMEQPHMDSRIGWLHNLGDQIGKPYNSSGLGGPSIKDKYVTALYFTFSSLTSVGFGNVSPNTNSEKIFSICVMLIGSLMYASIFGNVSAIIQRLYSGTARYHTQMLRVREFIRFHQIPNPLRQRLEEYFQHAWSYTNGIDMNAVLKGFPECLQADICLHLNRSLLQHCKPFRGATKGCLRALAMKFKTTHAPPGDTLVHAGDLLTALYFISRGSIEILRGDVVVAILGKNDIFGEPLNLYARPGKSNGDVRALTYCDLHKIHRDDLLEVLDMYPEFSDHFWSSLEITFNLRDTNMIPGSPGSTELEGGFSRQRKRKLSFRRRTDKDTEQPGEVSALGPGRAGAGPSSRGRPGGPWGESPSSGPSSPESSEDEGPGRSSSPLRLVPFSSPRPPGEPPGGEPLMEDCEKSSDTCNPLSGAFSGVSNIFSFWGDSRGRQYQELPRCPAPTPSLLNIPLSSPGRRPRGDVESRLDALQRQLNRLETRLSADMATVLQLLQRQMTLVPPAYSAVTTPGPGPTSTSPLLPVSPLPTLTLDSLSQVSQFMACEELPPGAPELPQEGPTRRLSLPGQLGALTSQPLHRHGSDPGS
With `COc1ccccc1C1C(C(=O)NCc2ccccc2)=C(C)Nc2ncnn21` (stereo not drawn), the “hERG current change (%, negative = inhibition) at 10uM” value was 4.42%. For `CCC1(c2ccccc2)NC(=O)N(CC(=O)Nc2ccc3c(c2)OCO3)C1=O` (stereo not drawn) the value was -6.09%; for `N#Cc1ccc(NC(=O)COC(=O)C2=COCCO2)cc1`, 4.19%; for `COc1ccc2cc(C(=O)C3CCCN(Cc4cccc(C)n4)C3)ccc2c1` (stereo not drawn), -66.5%. Regarding `O=C(OCC(=O)N1CCc2ccccc2C1)c1cccc([N+](=O)[O-])c1`, the “hERG current change (%, negative = inhibition) at 10uM” value is reported as -25.5%. The result for `O=C(Nc1ccccc1)c1c(O)[nH]c(=O)[nH]c1=O` reads 8.67%; that for `Cc1ccc(S(=O)(=O)N2CCCCC2)cc1NC(=O)CSc1ncnc2ccccc12`, -36.2%.

With `CC(C)N1CCC(N2CCN(Cc3ccc4nsnc4c3)CC2CCO)CC1` (stereo not drawn), the “hERG current change (%, negative = inhibition) at 10uM” value is on record as -8.62%. Turning to `O=C(CSc1nccn(-c2ccc(Br)cc2)c1=O)NC1CCCC1`, the “hERG current change (%, negative = inhibition) at 10uM” value is listed as 13.7%. For `COCCSc1nnc(NS(=O)(=O)Cc2ccccc2)s1` the value was -10.3%. With `COC(=O)c1sc(NC(=O)c2ccc(Cn3cc(Cl)cn3)o2)c(C#N)c1C`, the “hERG current change (%, negative = inhibition) at 10uM” value turned out to be 14.4%. The result for `O=CC(Br)P(=O)(N1CCOCC1)N1CCOCC1` (stereo not drawn) reads 3.6%; that for `CC(=O)Nc1ccc(S(=O)(=O)NCCC(=O)N2CCN(C(c3ccccc3)c3ccccc3)CC2)cc1`, -8.45%. As for `O=C(CSCc1c[nH]c(=O)[nH]c1=O)OCC(=O)c1ccc(Br)cc1`, the “hERG current change (%, negative = inhibition) at 10uM” value is recorded as 10.5%. In the case of `O=C(NCCc1ccccc1)Nc1ccc(Cl)cc1`, the “hERG current change (%, negative = inhibition) at 10uM” value amounted to 11%. The result for `Cc1nc(C)n(C(C)CC(=O)O)n1` (stereo not drawn) reads 2.45%; that for `COc1cc(C(O)P(=O)(OCC(C)C)c2ccc(N(C)C)cc2)cc(OC)c1OC` (stereo not drawn), 5.84%; that for `COc1ccc(S(=O)(=O)N2CCN(c3ncccn3)CC2)cc1`, -5.12%. As to `CCN(CC)C(=O)Cn1cc(S(=O)(=O)CC(=O)Nc2ccc(F)cc2)c2ccccc21`, the “hERG current change (%, negative = inhibition) at 10uM” value is -17.7%.

`Cc1ccc(S(=O)Cc2ccc(C(=O)N3CCN(C4CCCCC4)CC3)o2)cc1` (stereo not drawn): the “hERG current change (%, negative = inhibition) at 10uM” value was -15.9%. For `CCc1nnc(N/N=C/c2cc(Br)c(O)cc2O)n1N` the value was 17.2%; for `CCCc1nc2ccccc2c(C(=O)OCC(=O)Nc2cccc(S(=O)(=O)N3CCOCC3)c2)c1CC`, 11.3%; for `O=C(NCc1ccco1)c1ccc(COCC(F)(F)C(F)F)cc1`, -13.6%. Consider `O=S(=O)(NCc1nnc2c(C(F)(F)F)cc(Cl)cn12)c1ccccc1`, for which the “hERG current change (%, negative = inhibition) at 10uM” value is reported as 0.193%. `CCCOc1ccc(C2Nc3cccc4cccc(c34)N2)cc1`: the “hERG current change (%, negative = inhibition) at 10uM” value is reported as 10.7%. For `CCOC(=O)c1sc(NC(=O)C2CC(=O)N(c3ccc(OC)cc3)C2)nc1C` (stereo not drawn) the value was -17.2%; for `Cc1ccc(S(=O)(=O)Nc2cccc(C(=O)NCC(c3ccccc3)N(C)C)c2)cc1F` (stereo not drawn), -45.8%. `COc1ccc(S(=O)(=O)NC(C)c2ccccc2)cc1C(=O)N1CCCCC1` (stereo not drawn): the “hERG current change (%, negative = inhibition) at 10uM” value is given as 7.84%. For `Cc1c(C)c2ccc(OCC(=O)NC(Cc3c[nH]c4ccc(O)cc34)C(=O)O)c(C)c2oc1=O` (stereo not drawn) the value was 4.8%; for `COc1ccc(OCC(O)CN2C(=O)c3ccccc3C2=O)cc1` (stereo not drawn), 8.41%. For `COc1ccc(NC(=O)c2ccco2)cc1NC(=O)c1cccs1` the value was -20%. The result for `CSc1ccccc1NC(=O)Nc1ccc(F)c(Cl)c1` reads -3.66%; that for `CC1(C)Cc2cccc(OCC(=O)OCc3nnc(-c4ccc([N+](=O)[O-])cc4)o3)c2O1`, -40.5%. On to `CC1=CC(C)(C)Nc2ccc(OC(=O)C(C)N3C(=O)c4ccccc4C3=O)cc21` (stereo not drawn), for which the “hERG current change (%, negative = inhibition) at 10uM” value was -12.3%. In the case of `CCCC[C@@H]1CNC(=S)N1CC1CCCCC1`, the “hERG current change (%, negative = inhibition) at 10uM” value amounted to 6.32%. The result for `COc1ccccc1S(=O)Cc1ccc(C(=O)O)o1` (stereo not drawn) reads 1.57%.

As for `CSc1ccc(C#N)cc1NC(=O)c1ccc(Cl)cc1`, the “hERG current change (%, negative = inhibition) at 10uM” value is given as -0.0481%. As to `Clc1ccc(-c2cn3cc(Cl)ccc3n2)cc1`, the “hERG current change (%, negative = inhibition) at 10uM” value came to 18.4%. For `O=S1(=O)[C@H]2C[C@@H]3C=C[C@@]2(CN1Cc1ccccc1F)O3` the value was 17.8%; for `CNC(=S)NNC(=O)c1sccc1OCc1cccc(C(F)(F)F)c1`, 17.5%; for `Cc1ccc(/C=N\NC(=O)/C(=C\Nc2nccc(C)n2)NC(=O)c2ccccc2)cc1`, -9.72%. As for `CCC(=O)Nc1ccc(C(=O)NNC(=O)Cc2ccccc2)cc1`, the “hERG current change (%, negative = inhibition) at 10uM” value is on record as -13.3%.

As for `O/N=C1\CCCc2oc3c(c21)CCCC3`, the “hERG current change (%, negative = inhibition) at 10uM” value is listed as 3.38%.

For the compound `COc1ccc2cnn(Cc3ccccc3)c(=O)c2c1OC`, the “hERG current change (%, negative = inhibition) at 10uM” value is recorded as 15.2%. The result for `COC(=O)c1ccccc1NC(=O)CSc1ncn[nH]1` reads 5.62%; that for `CCOC(=O)CSc1nnc(NC(=O)NC(C)C)s1`, 5.74%; that for `CCOc1cccc(CN2CCCC(C(=O)Nc3cccc(-n4cccn4)c3)C2)c1` (stereo not drawn), -56.3%.

Consider `C=CCn1c(SCc2ccc(C#N)cc2)nnc1-c1cccc(OC)c1`, for which the “hERG current change (%, negative = inhibition) at 10uM” value is -67.4%. For `CCOc1ccc(CCNC(=O)CN2CCN(Cc3ccccc3C)C2=O)cc1OCC`, the “hERG current change (%, negative = inhibition) at 10uM” value was -12%. The result for `Cn1c(C(=O)NC2CCCCC2)cc2c(=O)n3ccccc3nc21` reads 4.32%. As to `CCC1=NN2C(=N)/C(=C\c3cccn3-c3cccc(Cl)c3)C(=O)N=C2S1`, the “hERG current change (%, negative = inhibition) at 10uM” value is listed as -11.5%. As for `CC(=O)Nc1c(C(=O)N2CCOCC2)sc2nc3c(cc12)COC(C)(C)C3`, the “hERG current change (%, negative = inhibition) at 10uM” value turned out to be 8.68%. Consider `COc1ccc(S(=O)(=O)NCCc2cn3nc(C)c(C)nc3n2)cc1`, for which the “hERG current change (%, negative = inhibition) at 10uM” value came out at 20.2%. Regarding `CN(C)c1ccc(C(=S)N2CCN(c3ccccc3)CC2)cc1`, the “hERG current change (%, negative = inhibition) at 10uM” value is reported as 12.6%. The result for `Cc1ccc(NC(=O)CCN2C(=O)C3CCCCC3C2=O)c(O)c1` (stereo not drawn) reads 11.9%. For `O=C(CCOc1ccccc1)Nc1ccnn1C1CCN(C(=O)CCC(F)(F)F)CC1` the value was 3.61%; for `COc1ccc(C2CC2/C(=N/OC(=O)c2cccs2)c2ccccc2)cc1` (stereo not drawn), 4.13%; for `O=C(CN1CCN(Cc2ccccc2)CC1)c1c[nH]c2ccccc12`, -56.5%.

For `CCN(CC)S(=O)(=O)c1ccc(NC(=O)COC(=O)CN2C(=O)c3ccccc3C2=O)cc1`, the “hERG current change (%, negative = inhibition) at 10uM” value was -31.2%. For `FC(F)C(F)(F)C(F)(F)C(F)(F)c1cc(-c2ccccc2)n[nH]1`, the “hERG current change (%, negative = inhibition) at 10uM” value is reported as -16.9%. Turning to `COc1cc(OC)c(OC)cc1/C=N/NC(=O)c1ccc(=O)n(C)c1`, the “hERG current change (%, negative = inhibition) at 10uM” value is 3.8%. For `CC(OC(=O)Cc1c(F)cccc1Cl)C(=O)NCCC1=CCCCC1` (stereo not drawn) the value was -25.7%.

As for `CCN(CC)C(=O)Cn1c(=O)n(-c2ccc(CC(=O)NCc3ccccc3)cc2)c(=O)c2sccc21`, the “hERG current change (%, negative = inhibition) at 10uM” value came to 18%. The result for `CNC(=S)N1CCc2cc(OC)c(OC)cc2C1` reads -3.93%; that for `Cc1ccc(CNC(=O)CN2C(C)CCCC2C)cc1` (stereo not drawn), -0.842%. As to `O=C(C(=O)N1CCOCC1)c1cn(Cc2ccccc2F)c2ccccc12`, the “hERG current change (%, negative = inhibition) at 10uM” value stood at 10.8%. The result for `O=C(Nc1cccc(C(=O)O)c1)/C(=C/c1ccc([N+](=O)[O-])cc1)NC(=O)c1ccccc1` reads -5.36%; that for `Cn1cc(CC(=O)NCCCN2CCCC2=O)c2ccccc21`, -3.58%; that for `Cc1ccccc1NS(=O)(=O)c1cc(C(=O)NCc2ccco2)ccc1C`, -20.3%. `CN(C)C(=O)[C@H]1C[C@H]1[C@@H](O)[C@H](CO)NC(=O)[C@H](COCc1ccccc1)NC(=O)OC(C)(C)C`: the “hERG current change (%, negative = inhibition) at 10uM” value was 11.3%. Turning to `COc1cccc(-c2nnn(CC(C)=O)n2)c1`, the “hERG current change (%, negative = inhibition) at 10uM” value was -2.29%. For `CN(C)S(=O)(=O)c1ccc(-c2csc(-c3cccnc3)n2)cc1` the value was -34.6%; for `S=C(NCc1ccncc1)Nc1ccc(Cl)cc1`, -0.853%; for `COc1ccc(/C=C2\CN(Cc3ccccc3)C/C(=C\c3ccc(OC)c(O)c3)C2=O)cc1O`, 9.53%.

Turning to `CCC(=O)N1CCc2cc(Br)cc(S(=O)(=O)Nc3c(C)n(C)n(-c4ccccc4)c3=O)c21`, the “hERG current change (%, negative = inhibition) at 10uM” value came out at 5.02%.

For `Cc1ccccc1CSCC(=O)NC(=O)NC(C)(C)C`, the “hERG current change (%, negative = inhibition) at 10uM” value was -15.6%. The result for `CC(=O)c1ccc(N2CCN(C(=O)c3ccc(OCc4c(C)noc4C)cc3)CC2)cc1` reads 4.7%; that for `Cc1ccc(NC(=O)C2CCN(S(=O)(=O)c3cnc[nH]3)CC2)nc1`, 9.52%; that for `CCN(C(=O)CSc1nnc(-c2ccncc2)n1C)C1CCS(=O)(=O)C1` (stereo not drawn), 15.8%.

Take `COc1ccc(Cn2c(C)c(C)c(C#N)c2NC(=O)Nc2cccc(C)c2)cc1`: the “hERG current change (%, negative = inhibition) at 10uM” value was 10.2%. Turning to `N#Cc1nc(-c2ccco2)oc1N1CCc2ccccc2C1`, the “hERG current change (%, negative = inhibition) at 10uM” value came out at 11.2%.

Take `CCN(CC)C(=O)CSc1nc(O)c(Cc2ccc(OC)cc2)c(=O)[nH]1`: the “hERG current change (%, negative = inhibition) at 10uM” value is listed as 11.3%.

Consider `CCOc1ccc(CCNC(=O)C(CC)n2nc(C)n3c(cc4sccc43)c2=O)cc1OCC` (stereo not drawn), for which the “hERG current change (%, negative = inhibition) at 10uM” value is given as -22.5%. `Cc1cc2nc(/N=C(\N)NC(=O)C(C)C)nc(C)c2cc1C`: the “hERG current change (%, negative = inhibition) at 10uM” value came to 18.8%. On to `C[C@@H]1CN(Cc2nc(-c3ccc(Cl)cc3)no2)C[C@H](C)O1`, for which the “hERG current change (%, negative = inhibition) at 10uM” value is listed as -3.01%.

`CC1=CCC2C(=O)N(c3cccc(C(=O)Nc4ccc(Cl)cc4)c3)C(=O)C2C1` (stereo not drawn): the “hERG current change (%, negative = inhibition) at 10uM” value is -17%. The result for `COc1cccc(C(=O)N2CCN(CCCc3ccccc3)CC2)c1OC.O=C(O)C(=O)O` reads -46.7%.
